According to the RNAGym collection of RNA variant scans (doi:10.1093/nar/gkz1192):
Read counts are not given, so values of variants with three or more changes are uncertain.

B1: CPEB3 Ribozyme (parent)
chain: UAACAGGGGGCCACAGCAGAAGCGUUCACGUCGCAGCCCCUGUCAGAUUCUGGUGAAUCUGCGAAUUCUGCUGUAUAUCUC

Variants of: B1
Test: self-cleavage, relative activity (ratio to wild type); higher = more cleavage; in vitro, sequencing
Procedure, shortened: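 CPEB3 self-cleaving ribozyme mutant libraries were made by rounds of error-prone PCR, barcoded, and transcribed in vitro with T7 RNA polymerase for 5 hours at 37°C. Cleavage occurred during transcription and a 15 min DNase I step before EDTA stop. RNAs were reverse transcribed with template switching and Illumina-sequenced, with DNA sequencing mapping barcodes to variants. Relative activity is the variant's cleaved/total read fraction divided by wild type's (minimum 5 reads), averaged across three batches.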
UAACAGGGGGCCACAGCAGAAGCGUUCAAGUCGCAGCCCCUGUCGGAUUCUGGUGAAUCUGCGAAUUCUGCUGUUUAUCUC [C29A A45G A75U] gave a self-cleavage of 0.33. UAACAGGGGGCCACAGCAGAAGCGUUCAUGUCGCUGCCCCUGUCAGAUCCUGGUGAAUCUGCGAAUUCAGCUGUAUAUCUC [C29U A35U U49C U69A] gave a self-cleavage of 0.14. UAACAGGGGGCCACAGCAGAAGCGUUCAUGUAGCAUCCCCUGUUAGAUUCUGGUGAAUCUACGAAUUCUGCUGUAUAUCUC [C29U C32A G36U C44U G61A] gave a self-cleavage of 0.08. In the case of UAACAGGGGGCCACAGCAGAAGCGUUCUCGUCGCAGCCCCAGUCAGAUUCGGGCGAAUCUGCGAAUUCUGCUGUAUAUCUC [A28U U41A U51G U54C], the self-cleavage is reported as 0.2. For UAACAGGGGGCCACAGCAGAAGCGUUCAUGUCGCGGCCCCUGUCAGAUUCUGGUGAAUCUGCGGAUUCUGCUGAAUAUCUC [C29U A35G A64G U74A], the self-cleavage was 1.21. Variant UAACAGGGGGCCACAGCAGAAGCGUUCUCGUCGCAGCCCCCGCCAGAUUCUGGUGUAUCUGCGAAUUCCGCUGUAUAUCUC [A28U U41C U43C A56U U69C] has a self-cleavage of 0.07. UAACAGGGGGCCACAGCAGAAGCGUUCUCGCCGCAGCCCCAGUCCGUUUCUGGUGAAUCUGCGAAUUCUGCUGUAUACCUC [A28U U31C U41A A45C A47U U78C] showed a self-cleavage of 0.1. Variant UAACAGGGGGCCACAGCAGAAGCGUUCAUGUCGCAGCCCCUGUCAGAUUCUGGUGAAUCUGCGAGUUCCGCAGUAUAUCCC [C29U A65G U69C U72A U80C] has a self-cleavage of 0.22. For UAACAGGGGGCCACAGCAGAAGCGUUCUCGUCGCAGCCCCCGUCGGAUUCUGGUGAAUCUGCGAAUUCUGCCGUAUAUCUC [A28U U41C A45G U72C], the self-cleavage was 0.64. With UAACAGGGGGCCACAGCAGAAGCGUUCUCGUCGCAGCCCCUGUCAGAUUCUGGUGAAACUGCGAAUUCCGCUGUAUAUCUC [A28U U58A U69C] the self-cleavage was 0.15. UAACAGGGGGCCACAGCAGAAGCGUUCUCGUCGCAGCCCCUGUCAGAUCCUGGUGAAUCUGCGAAUUCUGCUGUAUAUCCC [A28U U49C U80C] gave a self-cleavage of 0.42. Work on UAACAGGGGGCCACAGCAGAAGCGUUCUCGUCGCAGCCCCUGUCAGACUCCGGUGAAUCUGCGAAUUCUGCUGUAUAUCUC [A28U U48C U51C] yielded a self-cleavage of 0.43. UAACAGGGGGCCACAGCAGAAGCGUUCAUGUCGCAGCCCCUGUCUGAUUCCGGUGAAUCUGCGGAUUCUGCUGUAUAUCUC [C29U A45U U51C A64G] showed a self-cleavage of 0.16. UAACAGGGGGCCACAGCAGAAGCGUUCUCGUCGCAGCCCCAGUCAGAUUCUGGUGAUUCUCCGAACUCUGCUGUAUAUCUC [A28U U41A A57U G61C U66C] showed a self-cleavage of 0.08. In the case of UAACAGGGGGCCACAGCAGAAGCGUUCAUGUCGCAGCACCAGUCAGAUUCUGGUGAAUCUGCGAAUUCUGCUGAAUAUCUC [C29U C38A U41A U74A], the self-cleavage is reported as 0.06. With UAACAGGGGGCCACAGCAGAAGCGUUCUCGUCGCAGCCCCUGUCAGACUCUGGUGAAUCUGCGAAUUCUGCUGUAAUUCUC [A28U U48C U76A A77U] the self-cleavage was 0.18. For UAACAGGGGGCCACAGCAGAAGCGUUCAUGUCGCAGCCUCUGUCAGAUUCCGGUGAAUCUGCGAAUUCAGCUGUAAAUCUC [C29U C39U U51C U69A U76A], the self-cleavage was 0.08. UAACAGGGGGCCACAGCAGAAGCGUUCAAGUCGCGGCCCCUGUCAGAUUCUGGUGAAUCCGCGAAUUCUGCAGUAUAUCUC [C29A A35G U60C U72A] gave a self-cleavage of 0.42. Work on UAACAGGGGGCCACAGCAGAAGCGUUCAUGUCGCGGCCCCUGUCAGAUUCUGGUGAAUCUGCGAACUCUGCUGUAUAUCAC [C29U A35G U66C U80A] yielded a self-cleavage of 0.8. With UAACAGGGGGCCACAGCAGAAGCGUUCAUGUCGCAGCCCCUGUCAGAUUCUGGUGAAUCUGCGGAUUCCGCUGUAUAUCUC [C29U A64G U69C] the self-cleavage was 0.29. For UAACAGGGGGCCACAGCAGAAGCGUUCUCGCCGCAGCCCCUGUCAGAUUCUGGGGAAUCUGCGAAUUCUGCUGUAUAUCUC [A28U U31C U54G], the self-cleavage was 0.38. With UAACAGGGGGCCACAGCAGAAGCGUUCAUGUCGCAGCCCCUGUCGGAUUCUGGUGAAUCUGCGAAUUCUGCUGUAUAUCCC [C29U A45G U80C] the self-cleavage was 0.57. Variant UAACAGGGGGCCACAGCAGAAGCGUUCAUGUCGCAGCCCCUGUCGGGUUCUGGUGAAUCUGCGAAUUCUGCUGUAUACCUC [C29U A45G A47G U78C] has a self-cleavage of 0.18. Variant UAACAGGGGGCCACAGCAGAAGCGUUCUCGCCGCAGCCCCGGUCAGAUUCUGGUGAAUCUGCGAAUUCUGCUGUAUAACUC [A28U U31C U41G U78A] has a self-cleavage of 0.27. UAACAGGGGGCCACAGCAGAAGCGUUCUCGUCGCAGCCCCUGCCAGAUUCUGGUGAAUCUGCGAACUCUGGUGUACAUCUC [A28U U43C U66C C71G U76C] showed a self-cleavage of 0.14. UAACAGGGGGCCACAGCAGAAGCGUUCUCGUCGCAGCCCCUGUCAGAUUCCGGUGAAUCUGCGUAUUCUGCUGUAUAUCUC [A28U U51C A64U] showed a self-cleavage of 0.19. With UAACAGGGGGCCACAGCAGAAGCGUUCAUGUCGCAGCUCCUGUCAGAUUCUGGAGGAUCUGCGAAUUCUGCUGUAUAUCUC [C29U C38U U54A A56G] the self-cleavage was 0.13. For UAACAGGGGGCCACAGCAGAAGCGUUCUCGUCGCAGCCCCCGUCAGAUUCUGGUGGAUCUGCGAAAUCUGCUGUAUAUCUC [A28U U41C A56G U66A], the self-cleavage was 0.24. Variant UAACAGGGGGCCACAGCAGAAGCGUUCAGGUCGCAGCCCCUGUCAGAUUCUGGUGUAUCUGCGAAUUCUGCUGUGUAUCCC [C29G A56U A75G U80C] has a self-cleavage of 0.14. For UAACAGGGGGCCACAGCAGAAGCGUUCUCGUCGCAGCCCCAGUCAGAUUCUGGUGAAUCUGCGAAUUCUGCCGUAUAUCUC [A28U U41A U72C], the self-cleavage was 0.18. UAACAGGGGGCCACAGCAGAAGCGUUCAAGUCGCAGCACCCGUCAGAUUCUGGUGAAUCUGCGAAUUCUGCUGUAUAUCUC [C29A C38A U41C] gave a self-cleavage of 0.1. Work on UAACAGGGGGCCACAGCAGAAGCGUUCAUGUCGCAGCCCCUGUCUGAUACUGGUGAAUCUGCGAAUUCUGCCGUAAAUCUC [C29U A45U U49A U72C U76A] yielded a self-cleavage of 0.15. Work on UAACAGGGGGCCACAGCAGAAGCGUUCUCGUCGCAGCCCCUGGCAGAUACCGGUGAAUCUGCGAAUUCUGCUGUAUAUCUC [A28U U43G U49A U51C] yielded a self-cleavage of 0.09. Work on UAACAGGGGGCCACAGCAGAAGCGUUCAGGUCGCAGGCCCUGUCAGAUUCUGGUGGAUCUGCGAAUUCUGCUGUAUAUCUC [C29G C37G A56G] yielded a self-cleavage of 0.1.
